According to publication PMC4336329 (PLoS ONE, 2015):
The campaign covered roughly 310,000 compounds. About 2,200 (0.71%) showed an effect of 50% or more. Effects have a minus sign here. This is one part of the list.

What follows are compounds tested against human ether-à-go-go-related gene (hERG) potassium channel (human, UniProt Q12809) (assay: primary screen, population patch clamp on CHO cells stably expressing hERG).
human ether-à-go-go-related gene (hERG) potassium channel, sequence (Q12809 whole entry, looked up): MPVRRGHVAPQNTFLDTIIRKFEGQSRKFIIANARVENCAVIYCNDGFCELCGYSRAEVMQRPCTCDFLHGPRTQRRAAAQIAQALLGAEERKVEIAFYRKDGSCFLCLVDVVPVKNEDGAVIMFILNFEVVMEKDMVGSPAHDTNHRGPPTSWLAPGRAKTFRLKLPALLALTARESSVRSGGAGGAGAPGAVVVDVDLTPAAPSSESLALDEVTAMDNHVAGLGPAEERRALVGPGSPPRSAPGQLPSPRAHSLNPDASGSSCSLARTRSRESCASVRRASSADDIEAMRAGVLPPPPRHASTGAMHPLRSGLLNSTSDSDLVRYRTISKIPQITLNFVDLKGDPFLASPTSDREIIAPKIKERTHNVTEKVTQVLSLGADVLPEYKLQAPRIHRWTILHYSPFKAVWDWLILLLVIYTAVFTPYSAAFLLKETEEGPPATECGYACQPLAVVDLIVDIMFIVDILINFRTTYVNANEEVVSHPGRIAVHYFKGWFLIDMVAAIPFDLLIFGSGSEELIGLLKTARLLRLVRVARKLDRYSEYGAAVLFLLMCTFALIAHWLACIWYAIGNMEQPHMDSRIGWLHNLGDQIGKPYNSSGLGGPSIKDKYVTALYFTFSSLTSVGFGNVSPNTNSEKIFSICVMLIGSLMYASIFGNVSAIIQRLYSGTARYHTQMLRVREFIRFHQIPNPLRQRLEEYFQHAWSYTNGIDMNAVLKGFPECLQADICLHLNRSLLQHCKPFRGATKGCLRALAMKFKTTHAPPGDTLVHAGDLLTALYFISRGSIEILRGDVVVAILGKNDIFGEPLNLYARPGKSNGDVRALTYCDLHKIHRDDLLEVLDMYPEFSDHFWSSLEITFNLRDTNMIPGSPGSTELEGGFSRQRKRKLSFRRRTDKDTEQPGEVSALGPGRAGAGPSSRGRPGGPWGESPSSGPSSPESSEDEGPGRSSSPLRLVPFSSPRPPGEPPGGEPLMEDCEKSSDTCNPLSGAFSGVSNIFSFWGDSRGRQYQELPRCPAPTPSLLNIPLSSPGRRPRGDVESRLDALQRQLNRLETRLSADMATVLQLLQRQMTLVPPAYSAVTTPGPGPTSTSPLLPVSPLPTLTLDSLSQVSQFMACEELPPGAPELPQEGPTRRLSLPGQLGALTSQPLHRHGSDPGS

| Compound | hERG current change (%, negative = inhibition) at 1uM [%] |
| --- | --- |
| CCOC(=O)N1CCN(C(=S)Nc2ccc(C)cc2)CC1 | 8.96 |
| CCC(Sc1nncn1C)C(=O)Nc1nnc(-c2ccc(Cl)cc2)s1 (stereo not shown) | 12 |
| COc1cccc(NC(=O)c2ccccc2Br)c1 | 11 |
| Cc1nnc(SC(C)C(=O)NC2CCCCC2C)n1N (stereo not shown) | 11.1 |
| CCCOC(=O)c1ccc(NC(=O)C(=O)NCC2CCCO2)cc1 (stereo not shown) | 14 |
| CCOC(=O)c1sc(NC(=O)c2ccc(S(=O)(=O)N3CCCCCC3)cc2)nc1-c1ccccc1 | 11 |
| CCOc1ccc(NC(=S)NCc2ccc3c(c2)OCO3)cc1 | 10.6 |
| COc1ccc(N2C(=O)CC(Sc3nc4ccccc4s3)C2=O)cc1 (stereo not shown) | 5.76 |
| Cc1ccc(-n2ncc3c(N4CCCC(C)C4)ncnc32)c(C)c1 (stereo not shown) | 7.5 |
| CCOC(=O)COc1ccc(C2CC(C)=NN2c2ccccc2)cc1 (stereo not shown) | 8.65 |
| COc1cc(/C=N/O)ccc1Oc1cnccn1 | 13 |
| CCc1nnc(NC(=O)CCC(=O)N2CCN(Cc3cc(Cl)ccc3OC)CC2)s1 | 15.4 |
| O=S1(=O)CCN2C(=N1)SC1=C2CCN(Cc2ccccc2)C1 | 13.2 |
| Cl.N=c1n(CCCOc2ccc(Br)cc2)c2ccccc2n1CC(N)=O | 6.86 |
| Cc1ccc(C)c(S(=O)(=O)N2CCN(c3nc(CN4CCOCC4)nc4sc(C)c(C)c34)CC2)c1 | -7.69 |
| CCCc1nn2c(=O)cc(CSCC(=O)Nc3cccc(C)c3)nc2s1 | 11.5 |
| CC1CC(C)CN(C(=O)c2cn(C)c3ccc(S(=O)(=O)N(C)C)cc3c2=O)C1 (stereo not shown) | 6.66 |
| Cn1c(C=O)c(-c2ccc3c(c2)OCCO3)c2ccccc21 | 13.4 |
| Cc1cc(NC(=O)CSc2nnc(NC(=O)C3CC(=O)N(c4ccccc4)C3)s2)no1 (stereo not shown) | 5.28 |
| CC(NC(=O)C1CCN(S(=O)(=O)c2cnc[nH]2)CC1)c1ccccc1 (stereo not shown) | 5.83 |
| CCC(=Nc1ccc(N)cc1)C1=C(O)C(C(=O)OC)C(C)(C)CC1=O (stereo not shown) | 23.8 |
| COc1ccc(C2=NOC(C(=O)Nc3cc(Br)ccc3O)C2)cc1OC (stereo not shown) | 18.7 |

| Compound | hERG current change (%, negative = inhibition) at 1uM [%] |
| --- | --- |
| COc1cccc2cc(C(=O)C3=C(O)C(=O)N(CCN(C)C)C3c3ccc(Cl)cc3)oc12 (stereo not shown) | 6.72 |
| O=C(NCCc1ccccc1)C(=O)c1c[nH]c2ccccc12 | 8.35 |
| COc1ccccc1-c1c(C(F)(F)F)oc2cc(OC(=O)c3ccc([N+](=O)[O-])cc3)ccc2c1=O | 12.8 |
| CN(C)c1ccc(N=Cc2nc(-c3ccccc3)oc2OC(=O)c2cccc(Cl)c2)cc1 | 18.1 |
| CCCC[N+]1(C)[C@@H]2CC(OC(=O)[C@H](CO)c3ccccc3)C[C@H]1[C@@H]1O[C@@H]12.[Br-] (stereo partly shown) | 7.66 |
| CCOC(=O)C(NCCOC)(NC(C)=O)C(F)(F)F (stereo not shown) | 9.23 |
| Cc1ccc(NC(=O)CN(C)S(=O)(=O)c2cccc3cccnc23)c(C)c1 | 10.3 |
| CCCn1c(OC)nc2c1c(=O)n(C)c(=O)n2C | 6.95 |
| O=C(CS(=O)(=O)c1ccccc1)NC1CCCCC1 | 11.1 |
| CC(=O)c1sc(NC(=O)CSCc2c(C)noc2C)nc1-c1ccccc1 | 7.09 |
| COc1ccccc1-n1c(C)nc2cc(C(=O)NCCN3CCOCC3)ccc21 | 15.3 |
| O=C(NCCN1CCOCC1)c1ccc2c(c1)ncn2C1CCCC1 | -1.57 |
| CCc1ccc(-c2ccc3nnc(SCC(N)=O)n3n2)cc1 | 22.5 |
| Cc1nc2nc(-c3ccccc3)[nH]n2c(=O)c1Cc1ccccc1 | 5.86 |
| CCOc1ccccc1CN1CCN(CCCn2cccn2)CC1CCO (stereo not shown) | -28.6 |
| Cn1c(CNC(=O)OC(C)(C)C)nnc1SCc1c(Cl)cccc1Cl | 13.5 |
| COc1ccc(CN2CCN(CC(=O)Nc3ccccc3C(=O)NC3CC3)CC2)cc1F | -99.6 |
| Cc1cc(C)cc(N(CCC#N)C(=O)CSC2=Nc3ccccc3C3CC=NN23)c1 (stereo not shown) | 9.85 |
| CCCNC(=O)c1ccc(N2CCC3(CC2)CC(c2cccc(Br)c2)=NO3)c(NC(=O)c2ccccc2)c1 | 7.25 |
| O=C(Nc1nc(-c2ccccc2)cs1)c1cccc(S(=O)(=O)N2CCN(Cc3ccccc3)CC2)c1 | 11.7 |
| CC(C)N(Cc1ccccc1)C(=S)Nc1ccc(OC(F)F)cc1 | 1.45 |
| CC(=O)Nc1nnc(C)s1 | 7.59 |

| Compound | hERG current change (%, negative = inhibition) at 1uM [%] |
| --- | --- |
| CC1(c2ccccc2)NC(=O)N(CC(=O)N2CCN(S(=O)(=O)c3cccc([N+](=O)[O-])c3)CC2)C1=O (stereo not shown) | 10.9 |
| O=S(=O)(c1ccc(-c2cnc(C3CC3)o2)cc1)N1CCN(c2ccccc2)CC1 | 13.4 |
| CCCC(NCC(O)COc1ccc(-c2ccccc2)cc1)c1ccccc1 (stereo not shown) | 10.3 |
| CC(C)COC(=O)c1ccc(NC(=O)C2C3C=CC(C3)C2C(=O)O)cc1 (stereo not shown) | -0.843 |
| O=C(Nc1ccccc1)N1C(=O)C2(OCCO2)c2ccccc21 | 18.3 |
| COc1ccc(OC)c(-c2cc(C(=O)N/N=C/c3ccc(F)cc3)c3ccccc3n2)c1 | 12.3 |
| CC(C)(C)C(=O)Nc1ccc(-c2nnc3n2CCCCC3)cc1 | 17.7 |
| Cc1nn(CC(=O)N(C)C2(C#N)CCCCC2)c(C)c1[N+](=O)[O-] | 3.7 |
| O=C(COC(=O)c1ccccn1)Nc1ccccc1OC(F)F | 12.3 |
| COc1cc([N+](=O)[O-])ccc1-c1ccc(/C=N\n2cnnc2)o1 | 13.2 |
| CC(=O)Nc1ccc(S(=O)(=O)N2CCN(S(=O)(=O)N3CCOCC3)CC2)cc1 | 5 |
| CS(=O)(=O)N(CC(=O)Nc1cccc(F)c1)c1cccc([N+](=O)[O-])c1 | 3.13 |
| C=C1CCC[C@]2(C)C[C@H]3OC(=O)C(CNC(C)(CO)CO)[C@H]3CC12 (stereo partly shown) | 10.2 |
| O=C(c1ccccc1)c1ccc(N2CCCC2)cc1 | -0.0505 |
| C#CCNc1nc(C)nc2c1nnn2Cc1ccccc1F | 9.4 |
| COC(=O)C1=C(C)N=C2SC(C)C(=O)N2C1c1ccc(C(=O)OC)cc1 (stereo not shown) | 11.5 |
| Cn1ncc(C#N)c1NC(=O)C1CC(c2ccc(Cl)c(Cl)c2)=NO1 (stereo not shown) | 5.83 |
| O=S(=O)(NCC(c1ccc2c(c1)OCO2)N1CCOCC1)c1ccccc1 (stereo not shown) | 5.68 |
| O=C(COc1ccc(Cl)cc1)NCCCNC(=O)c1cccnc1 | 26.4 |
| COc1ccc(Cl)cc1NC(=O)c1cc(-c2ccco2)on1 | 13 |
| COc1ccc(-c2ccc(=O)n(CC(=O)Nc3nnc(C(C)C)s3)n2)cc1OC | 8.77 |
| COC(=O)CCCCCCCCC(O)C[N+]1(C)CCOCC1.[I-] (stereo not shown) | 11.3 |

| Compound | hERG current change (%, negative = inhibition) at 1uM [%] |
| --- | --- |
| CCCCSc1nc2c(c(=O)[nH]1)CCC2 | 13.3 |
| COc1cccc2cc(C(=O)n3ccc(C)n3)c(=O)oc12 | 10.3 |
| O=C(O)CSc1nnc(-c2ccc(Cl)cc2Cl)n1-c1ccc(Br)cc1 | 4.92 |
| COc1cc(OC)cc(C(=O)O/N=C(\N)c2ccccn2)c1 | 11.5 |
| CC(C)(C)OC(=O)NN1CC(=O)N2Cc3ccccc3C[C@@H]2C1=O | 15 |
| Cc1cc(C)n(CCC(=O)N=Nc2c(O)[nH]c3ccc(Br)cc23)n1 | 9.71 |
| Cc1nc2ccc(S(=O)(=O)N(C)CC(=O)NC(C)c3ccccc3)cc2s1 (stereo not shown) | 14.3 |
| CCCOc1ccc(/C=C/C(=O)NCc2ccccc2)cc1 | 2.18 |
| CCc1nc2ccc(C(=O)N3CCN(c4cccc(C)c4C)CC3)cc2nc1CC | 13 |
| CCNC(=O)CNC(=O)c1nn(Cc2ccccc2)c(=O)c2ccccc12 | 9.51 |
| CN(C)S(=O)(=O)c1ccc(C(=O)NCCS(=O)(=O)N2CCN(c3ccc(F)cc3)CC2)cc1 | 12.4 |
| Cc1ccc(-n2c(C)cc(/C=c3/sc4nc5ccccc5n4c3=O)c2C)cc1 | 9.79 |
| CC(C)c1ccc(OCc2ccc(C(=O)N(C)C)o2)cc1 | 9.46 |
| C=CCSc1nc(C)c(CC(=O)OCCCC)c(=O)[nH]1 | 10.8 |
| COCCn1c(SCC(=O)NC(=O)NC(C)(C)C)nc2ccccc21 | -7.15 |
| CCN(CC)c1ccc(C2C(C(C)=O)C(=O)CC(C)(O)C2C(C)=O)cc1 (stereo not shown) | -8.92 |
| O=C(COC(=O)c1ccc(F)c(S(=O)(=O)N2CCOCC2)c1)NCc1ccco1 | 8.06 |
| O=C1/C(=C/c2ccncc2)CCc2ccccc21 | 4.3 |
| Cc1ccc(C)c(OCC(O)CN2CCC(C)CC2)c1C (stereo not shown) | 0.216 |
| O=C(COC(=O)c1cc2c(s1)CCCC2)Nc1ccc(Cl)cn1 | 2.34 |
| CCc1nn2c(N3CCOCC3)cc(C)nc2c1-c1ccccc1 | 10.2 |
| CC(=O)Nc1ccc(S(=O)(=O)Nc2cccc(-c3ccc4nncn4n3)c2)cc1 | 6.09 |
